This is one part of the list.
B1: PhoQ; a variant is named by its letters at X, in order, P23837 (parent)
chain: MKKLLRLFFPLSLRVRFLLATAAVVLVLSLAYGMVALIGYSVSFDKTTFRLLRGESNLFYTLAKWENNKLHVELPENIDKQSPTMTLIYDENGQLLWAQRDVPWLMKMIQPDWLKSNGFHEIEADVNDTSLLLSGDHSIQQQLQEVREDDDDAEMTHSVAVNVYPATSRMPKLTIVVVDTIPVELKSSYMVWSWFIYVLSANLLLVIPLLWVAAWWSLRPIEALAKEVRELEEHNRELLNPATTRELTSLVRNLNRLLKSERERYDKYRTTLTDLTHSLKTPLXXLQXXLRSLRSEKMSVSDAEPVMLEQISRISQQIGYYLHRASMRGGTLLSRELHPVAPLLDNLTSALNKVYQRKGVNISLDISPEISFVGEQNDFVEVMGNVLDNACKYCLEFVEISARQTDEHLYIVVEDDGPGIPLSKREVIFDRGQRVDTLRPGQGVGLAVAREITEQYEGKIVAGESMLGGARMEVIFGRQHSAPKDE

Variants of: B1
Assay: enrichment ratio after two sorts for PhoP signalling (ratio (wild type AVST 3.29)); higher = more functional
Conditions: with PhoP (E. coli)

Row | Variant | enrichment ratio
1 | WKAQ | ≤ 0.25
2 | REFQ | 0.489
3 | MQYI | ≤ 0.25
4 | RQDL | ≤ 0.25
5 | MKCT | ≤ 0.25
6 | NFHP | ≤ 0.25
7 | SKHE | ≤ 0.25
8 | HYRQ | ≤ 0.25
9 | QPYH | ≤ 0.25
10 | HESI | ≤ 0.25
11 | TPSS | ≤ 0.25
12 | RLQF | ≤ 0.25
13 | YDVH | ≤ 0.25
14 | ARRH | ≤ 0.25
15 | MRCK | ≤ 0.25
16 | MPAG | ≤ 0.25
17 | RTFP | ≤ 0.25
18 | QHMF | ≤ 0.25
19 | KLAM | ≤ 0.25
20 | RGMF | ≤ 0.25
21 | IENI | ≤ 0.25
22 | DGNT | ≤ 0.25
23 | TSGM | 19.2
24 | HVKD | ≤ 0.25

Row | Variant | enrichment ratio
25 | RMAR | ≤ 0.25
26 | MAYM | 9.25
27 | EPKP | ≤ 0.25
28 | KDFM | ≤ 0.25
29 | ILMY | ≤ 0.25
30 | YPKG | ≤ 0.25
31 | PGLW | ≤ 0.25
32 | MQYK | ≤ 0.25
33 | SETK | ≤ 0.25
34 | GNNA | ≤ 0.25
35 | KLEM | ≤ 0.25
36 | NCFK | ≤ 0.25
37 | RRIL | ≤ 0.25
38 | CFLH | ≤ 0.25
39 | SRTS | ≤ 0.25
40 | TIIT | ≤ 0.25
41 | SQSI | 16.7
42 | WAMV | ≤ 0.25
43 | LVMG | ≤ 0.25
44 | TQKE | ≤ 0.25
45 | MNDV | ≤ 0.25
46 | HRGT | ≤ 0.25
47 | QHLV | ≤ 0.25
48 | SPCK | ≤ 0.25

Row | Variant | enrichment ratio
49 | IRPM | ≤ 0.25
50 | NNIW | ≤ 0.25
51 | MSGW | ≤ 0.25
52 | YPRF | ≤ 0.25
53 | YNMP | ≤ 0.25
54 | RCNC | ≤ 0.25
55 | NIFE | ≤ 0.25
56 | EPLD | ≤ 0.25
57 | MSHC | 1.32
58 | QQRG | ≤ 0.25
59 | IQWE | ≤ 0.25
60 | RAGL | ≤ 0.25
61 | YLVE | ≤ 0.25
62 | PDVF | ≤ 0.25
63 | VLFA | ≤ 0.25
64 | RGWP | ≤ 0.25
65 | GPNQ | ≤ 0.25
66 | VMRD | ≤ 0.25
67 | VSWY | 2.67
68 | RFQS | ≤ 0.25
69 | IMKA | ≤ 0.25
70 | EICC | ≤ 0.25
71 | YANN | ≤ 0.25
72 | KMAL | ≤ 0.25

Row | Variant | enrichment ratio
73 | LIQA | ≤ 0.25
74 | VHGP | ≤ 0.25
75 | ACWM | ≤ 0.25
76 | EPGE | ≤ 0.25
77 | YTAG | ≤ 0.25
78 | HHFI | ≤ 0.25
79 | ANYM | 0.253
80 | ASEM | ≤ 0.25
81 | VFWL | ≤ 0.25
82 | IKRQ | ≤ 0.25
83 | HERD | ≤ 0.25
84 | TKCR | ≤ 0.25
85 | DVNF | ≤ 0.25
86 | GWHH | ≤ 0.25
87 | IGSR | ≤ 0.25
88 | QGFT | 0.259
89 | IPLK | ≤ 0.25
90 | FQHQ | ≤ 0.25
91 | PYRY | ≤ 0.25
92 | SDFN | ≤ 0.25
93 | WPPE | ≤ 0.25
94 | TIST | 12.7
95 | GAFF | ≤ 0.25
96 | KACG | ≤ 0.25

Row | Variant | enrichment ratio
97 | QHWH | ≤ 0.25
98 | HYCH | ≤ 0.25
99 | HIAV | ≤ 0.25
100 | IIKW | ≤ 0.25
101 | YDSV | ≤ 0.25
102 | KFQE | ≤ 0.25
103 | GHRK | ≤ 0.25
104 | GDPE | ≤ 0.25
105 | KDTW | ≤ 0.25
106 | TMEG | ≤ 0.25
107 | DRWA | ≤ 0.25
108 | VSHK | ≤ 0.25
109 | HKHC | ≤ 0.25
110 | ANSG | 8.67
111 | EHPN | ≤ 0.25
112 | MLCT | ≤ 0.25
113 | MLKM | ≤ 0.25
114 | SPVA | ≤ 0.25
115 | CFLS | 1.8
116 | TNPA | ≤ 0.25
117 | QNVR | ≤ 0.25
118 | KHAT | ≤ 0.25
119 | VFEK | ≤ 0.25
120 | RYDQ | ≤ 0.25

Row | Variant | enrichment ratio
121 | TPNE | ≤ 0.25
122 | YTYS | ≤ 0.25
123 | DKYI | ≤ 0.25
124 | WQCI | ≤ 0.25
125 | TIDR | ≤ 0.25
126 | KIDR | ≤ 0.25
127 | FKAE | ≤ 0.25
128 | AATG | 7.22
129 | PVWD | ≤ 0.25
130 | WEYQ | ≤ 0.25
131 | SFPG | ≤ 0.25
132 | IQSA | ≤ 0.25
133 | LDKM | ≤ 0.25
134 | FNGD | ≤ 0.25
135 | VNIC | ≤ 0.25
136 | LQAL | ≤ 0.25
137 | HHHL | ≤ 0.25
138 | FCPL | ≤ 0.25
139 | YNGI | ≤ 0.25
140 | MVMY | ≤ 0.25
141 | TRCH | 3.09
142 | MLPT | ≤ 0.25
143 | HELY | ≤ 0.25
144 | DVVA | ≤ 0.25

Row | Variant | enrichment ratio
145 | ETSQ | ≤ 0.25
146 | LTDQ | ≤ 0.25
147 | EARH | ≤ 0.25
148 | LIAH | ≤ 0.25
149 | QCCV | ≤ 0.25
150 | SPHQ | ≤ 0.25
151 | IVQK | ≤ 0.25
152 | QKAN | ≤ 0.25
153 | HMWG | ≤ 0.25
154 | NDYK | ≤ 0.25
155 | TSVG | 2.07
156 | AKGC | ≤ 0.25
157 | IMDG | ≤ 0.25
158 | NSPE | ≤ 0.25
159 | TCAT | 14.5
160 | VVHV | ≤ 0.25
161 | TFHK | ≤ 0.25
162 | YNRM | ≤ 0.25
163 | GRVI | ≤ 0.25
164 | SQES | ≤ 0.25
165 | QLCM | ≤ 0.25
166 | MTEG | ≤ 0.25
167 | TSPN | ≤ 0.25
168 | RHIK | ≤ 0.25

Row | Variant | enrichment ratio
169 | LCYA | ≤ 0.25
170 | MVAY | 8.8
171 | IWNM | ≤ 0.25
172 | YHLN | ≤ 0.25
173 | SGFR | ≤ 0.25
174 | AITI | 10.7
175 | ALLL | 8.77
176 | PLST | ≤ 0.25
177 | NKMD | ≤ 0.25
178 | RISQ | ≤ 0.25
179 | FRYA | ≤ 0.25
180 | DVPT | ≤ 0.25
181 | FHQM | ≤ 0.25
182 | QAYI | 8.06
183 | MALH | 1.23
184 | SECA | 19.7
185 | ESNP | ≤ 0.25
186 | DTCM | ≤ 0.25
187 | EFDD | ≤ 0.25
188 | HMMH | ≤ 0.25
189 | ETCP | ≤ 0.25
190 | RWGI | ≤ 0.25
191 | FTFK | ≤ 0.25
192 | IETF | ≤ 0.25

Row | Variant | enrichment ratio
193 | RYDS | ≤ 0.25
194 | DWAC | ≤ 0.25
195 | EIDC | ≤ 0.25
196 | HGIV | ≤ 0.25
197 | VHQC | ≤ 0.25
198 | DQKF | ≤ 0.25
199 | HGDA | ≤ 0.25
200 | IIMR | ≤ 0.25
201 | QLMR | ≤ 0.25
202 | VEKK | ≤ 0.25
203 | NGPK | ≤ 0.25
204 | EMCF | ≤ 0.25
205 | LLHH | ≤ 0.25
206 | GVYL | ≤ 0.25
207 | EYKT | ≤ 0.25
208 | ELFN | 0.458
209 | EYWF | ≤ 0.25
210 | GWDP | ≤ 0.25
211 | TRSP | 0.734
212 | DDDA | ≤ 0.25
213 | KVTQ | ≤ 0.25
214 | LIYR | ≤ 0.25
215 | EMGN | ≤ 0.25
216 | KQLW | ≤ 0.25

Row | Variant | enrichment ratio
217 | AFER | ≤ 0.25
218 | NLNY | ≤ 0.25
219 | MCDN | ≤ 0.25
220 | WKVC | ≤ 0.25
221 | NIRK | ≤ 0.25
222 | VRWV | ≤ 0.25
223 | RNRP | ≤ 0.25
224 | ARDG | ≤ 0.25
225 | NIVW | ≤ 0.25
226 | YHYR | ≤ 0.25
227 | GLTP | ≤ 0.25
228 | RYTT | ≤ 0.25
229 | NMTR | ≤ 0.25
230 | VHPN | ≤ 0.25
231 | LTLP | ≤ 0.25
232 | VWHS | ≤ 0.25
233 | TGRG | ≤ 0.25
234 | WFVK | ≤ 0.25
235 | RCFV | ≤ 0.25
236 | WLRP | ≤ 0.25
237 | DIDK | ≤ 0.25
238 | TCSY | 13.3
239 | WNAM | ≤ 0.25
240 | DLCC | ≤ 0.25

Row | Variant | enrichment ratio
241 | GLSE | 5.82
242 | QVCQ | ≤ 0.25
243 | DCWD | ≤ 0.25
244 | NTAY | ≤ 0.25
245 | DMTL | ≤ 0.25
246 | PVAW | ≤ 0.25
247 | DACG | ≤ 0.25
248 | DIHV | ≤ 0.25
249 | MSVI | 5.83
250 | DVTD | ≤ 0.25
251 | FLPD | ≤ 0.25
252 | VVSC | ≤ 0.25
253 | TCWP | ≤ 0.25
254 | KECM | ≤ 0.25
255 | FMEH | ≤ 0.25
256 | VARR | ≤ 0.25
257 | VMNW | ≤ 0.25
258 | PNCI | ≤ 0.25
259 | DALV | ≤ 0.25
260 | TNRT | ≤ 0.25
261 | ENFP | ≤ 0.25
262 | KHSK | ≤ 0.25
263 | PMPK | ≤ 0.25
264 | DFGK | ≤ 0.25

Row | Variant | enrichment ratio
265 | HPPV | ≤ 0.25
266 | FELV | 10.2
267 | SCMQ | 1.51
268 | RPPF | ≤ 0.25
269 | TFVP | ≤ 0.25
270 | AATP | ≤ 0.25
271 | PLKI | ≤ 0.25
272 | HSVF | ≤ 0.25
273 | VAGS | ≤ 0.25
274 | AQTG | 7.06
275 | WFMV | ≤ 0.25
276 | RPME | ≤ 0.25
277 | DCYG | ≤ 0.25
278 | ISEP | ≤ 0.25
279 | IDFD | ≤ 0.25
280 | DNSE | ≤ 0.25
281 | VNLI | 2.16
282 | MKHW | ≤ 0.25
283 | NLVW | ≤ 0.25
284 | AWAD | ≤ 0.25
285 | IRKN | ≤ 0.25
286 | GIMD | ≤ 0.25
287 | HWPA | ≤ 0.25
288 | LIHA | ≤ 0.25

Row | Variant | enrichment ratio
289 | RTQI | ≤ 0.25
290 | DHTW | ≤ 0.25
291 | KNCD | ≤ 0.25
292 | QSWD | 22.4
293 | TGWA | 4.94
294 | LQEL | ≤ 0.25
295 | SRQF | ≤ 0.25
296 | HEIK | ≤ 0.25
297 | HPWN | ≤ 0.25
298 | DWAG | ≤ 0.25
299 | DDTR | ≤ 0.25
300 | MYTL | ≤ 0.25
301 | YEER | ≤ 0.25
302 | KGGP | ≤ 0.25
303 | FTND | ≤ 0.25
304 | FFNL | ≤ 0.25
305 | TQFR | ≤ 0.25
306 | PGHP | ≤ 0.25
